Some of the results follow.
B1: Q9UKT9 (peptide)
chain: FCCNVCGALFTQKGNLLRHIKL
B2: Q9UKT9 (peptide)
chain: FECDQCGAMFTQKGNLLRHIKL
B3: Q9UKT9 (peptide)
chain: FKCDVCGAAFTQKGNLLRHIKL
B4: Q9UKT9 (peptide)
chain: FKCDVCGAIFTQKGNLLRHIKL
B5: Q9UKT9 (peptide)
chain: FNCPQCGAHFTQKGNLLRHIKL
B6: Q9UKT9 (peptide)
chain: FHCNICGAGFTQKGNLLRHIKL
B7: Q9UKT9 (peptide)
chain: LICNQCGFCCTQKGNLLRHIKL
B8: Q9UKT9 (peptide)
chain: FFCNVCGAQFTQKGNLLRHIKL
B9: Q9UKT9 (peptide)
chain: LACPICGFPCTQKGNLLRHIKL
B10: Q9UKT9 (peptide)
chain: FRCEICGASFTQKGNLLRHIKL
B11: Q9UKT9 (peptide)
chain: LTCPICGFICTQKGNLLRHIKL
B12: Q9UKT9 (peptide)
chain: LFCPICGFRCTQKGNLLRHIKL
B13: Q9UKT9 (peptide)
chain: FQCNQCGHLFTQKGNLLRHIKL
B14: Q9UKT9 (peptide)
chain: LSCNQCGFRCTQKGNLLRHIKL
B15: Q9UKT9 (peptide)
chain: FQCDVCGAKFTQKGNLLRHIKL
B16: Q9UKT9 (peptide)
chain: LKCPICGFLCTQKGNLLRHIKL
B17: Q9UKT9 (peptide)
chain: FGCNQCGHFFTQKGNLLRHIKL
B18: Q9UKT9 (peptide)
chain: FGCEICGHFFTQKGNLLRHIKL
B19: Q9UKT9 (peptide)
chain: FECPICGRLFTQKGNLLRHIKL
B20: Q9UKT9 (peptide)
chain: FHCNQCGRAFTQKGNLLRHIKL
B21: Q9UKT9 (peptide)
chain: LYCEICGFCCTQKGNLLRHIKL
B22: Q9UKT9 (peptide)
chain: FLCNQCGATFTQKGNLLRHIKL
B23: Q9UKT9 (peptide)
chain: FGCNQCGAKFTQKGNLLRHIKL
B24: Q9UKT9 (peptide)
chain: LACEICGFSCTQKGNLLRHIKL
B25: Q9UKT9 (peptide)
chain: FQCPVCGALFTQKGNLLRHIKL
B26: Q9UKT9 (peptide)
chain: FKCNQCGHPFTQKGNLLRHIKL
B27: Q9UKT9 (peptide)
chain: FMCDICGADFTQKGNLLRHIKL
B28: Q9UKT9 (peptide)
chain: FACEICGAAFTQKGNLLRHIKL
B29: Q9UKT9 (peptide)
chain: FECDICGAQFTQKGNLLRHIKL
B30: Q9UKT9 (peptide)
chain: FVCDVCGARFTQKGNLLRHIKL
B31: Q9UKT9 (peptide)
chain: FWCNICGARFTQKGNLLRHIKL
B32: Q9UKT9 (peptide)
chain: FYCEVCGAIFTQKGNLLRHIKL
B33: Q9UKT9 (peptide)
chain: FCCNVCGAKFTQKGNLLRHIKL
B34: Q9UKT9 (peptide)
chain: FQCNICGAMFTQKGNLLRHIKL
B35: Q9UKT9 (peptide)
chain: FDCEQCGACFTQKGNLLRHIKL
B36: Q9UKT9 (peptide)
chain: FMCNQCGHLFTQKGNLLRHIKL
B37: Q9UKT9 (peptide)
chain: FCCNQCGAKFTQKGNLLRHIKL
B38: Q9UKT9 (peptide)
chain: FYCEICGAKFTQKGNLLRHIKL
B39: Q9UKT9 (peptide)
chain: FSCNQCGAIFTQKGNLLRHIKL
B40: Q9UKT9 (peptide)
chain: FICEICGRHFTQKGNLLRHIKL
B41: Q9UKT9 (peptide)
chain: LCCPICGFLCTQKGNLLRHIKL
B42: Q9UKT9 (peptide)
chain: LSCEICGFKCTQKGNLLRHIKL
B43: Q9UKT9 (peptide)
chain: FHCEQCGAEFTQKGNLLRHIKL
B44: Q9UKT9 (peptide)
chain: FSCPICGAIFTQKGNLLRHIKL
B45: Q9UKT9 (peptide)
chain: LQCPICGFWCTQKGNLLRHIKL
B46: Q9UKT9 (peptide)
chain: LDCPICGFMCTQKGNLLRHIKL
B47: Q9UKT9 (peptide)
chain: FWCPICGAVFTQKGNLLRHIKL
B48: Q9UKT9 (peptide)
chain: FTCNQCGRGFTQKGNLLRHIKL
B49: Q9UKT9 (peptide)
chain: FTCEVCGATFTQKGNLLRHIKL
B50: Q9UKT9 (peptide)
chain: FCCPQCGAHFTQKGNLLRHIKL

The sequences below were run against no compound (DMSO) (assay: log2 fold change of degron read counts, EGFP-low vs EGFP+ sorted cells; higher = lower degron-EGFP level without compound (poor expression or instability)). Conditions: compound: DMSO control; 18 h.
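Further: jurkat cells carrying a lentiviral library of mutant zinc finger degrons fused to EGFP plus mCherry, mCherry+ cells FACS sorted, degron abundance counted by next-generation sequencing.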

Row | Sequence | log2 fold change of degron read counts
1 | B1 | -0.667
2 | B2 | -2.48
3 | B3 | -1.14
4 | B4 | -0.129
5 | B5 | -0.439
6 | B6 | -0.545
7 | B7 | 0.625
8 | B8 | -1.12
9 | B9 | 1.44
10 | B10 | -1.12
11 | B11 | 0.989
12 | B12 | 1.03
13 | B13 | -0.342
14 | B14 | 1.25
15 | B15 | -1.67
16 | B16 | 0.762
17 | B17 | 1.89
18 | B18 | 0.302
19 | B19 | -0.396
20 | B20 | -0.247
21 | B21 | 0.802
22 | B22 | -0.659
23 | B23 | 0.0237
24 | B24 | -0.64
25 | B25 | -0.179

Row | Sequence | log2 fold change of degron read counts
26 | B26 | 0.531
27 | B27 | -1.23
28 | B28 | -1.49
29 | B29 | -2.09
30 | B30 | -1.67
31 | B31 | 0.952
32 | B32 | -0.103
33 | B33 | -0.877
34 | B34 | -0.447
35 | B35 | -1.78
36 | B36 | 0.282
37 | B37 | -1.45
38 | B38 | -1.83
39 | B39 | 0.0437
40 | B40 | -0.274
41 | B41 | 1.48
42 | B42 | -0.538
43 | B43 | -1.56
44 | B44 | 0.102
45 | B45 | 1.37
46 | B46 | 0.806
47 | B47 | 1.34
48 | B48 | -1.7
49 | B49 | -3.07
50 | B50 | -0.127

Source: the supplement of paper PMC12645437, “Orthogonal IMiD-Degron Pairs Induce Selective Protein Degradation in Cells” (ACS Chemical Biology, 2025)
